Data on 84 variants can be found in a collection of fitness landscapes (doi:10.1016/j.celrep.2020.107928).

B1: Caulobacter ParB omega fusion; a variant is named by its letters at X, in order, B8GW30 (parent)
chain: MESVVVGEPGMSEGRRGLGRGLSALLGEVDAAPAQAPGEQLGGSREAPIEILQRNPDQPRRTFREEDLEDLSNSIREKGVLQPILVRPSPDTAGEYQIVAGERAWRAAQRAGLKTVPIMVRELDDLAVLEIGIIENVQRADLNVLEEALSYKVLMEKFERTQENIAQTIGKSXSHVANXMRLLXLPDEVQSYLVSGELTAXHARAIAAAADPVALAKQIIEGGLSVRETEALARKAPNLSAGKSKGGRPPRVKDTDTQALESDLSSVLGLDVSIDHRGSTGTLTITYATLEQLDDLCNRLTRGI

Whole data set: some 81,000 sequences, median “one-hybrid fitness for binding parS DNA” near -0.17, cut for the highest 2% near 0.51. This is one part of the list.

This experiment covers variants of B1. Description: one-hybrid fitness for binding parS DNA (scaled: cognate 1, non-cognate 0); higher = stronger binding. The note with it: with parS DNA site. In short, it runs like this: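 The reporter was HIS3, with the binding site 19 bp from the promoter, in E. coli USO used for bacterial one-hybrid selection of Caulobacter ParB libraries with four specificity codons randomised. Growth was on M9 lacking histidine, with 0.1 mM IPTG and 5 mM 3-AT, for 48 hours at 37°C. Illumina sequencing covered plasmids before and after selection; three replicate libraries were pooled and variants with under 10 reads dropped. A fitness score is the log change in variant-to-wild-type read ratio, rescaled to the cognate and non-cognate references.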
TNSG: the “one-hybrid fitness for binding parS DNA” value was at most 0.2.
The result for TFLW reads at most 0.2; that for KCEY, at most 0.2; that for DQQR, at most 0.2.
For TTWL the value was at most 0.2.
Turning to CPHR, the “one-hybrid fitness for binding parS DNA” value is at most 0.2.
For GPMC the value was at most 0.2; for HFAF, at most 0.2.
For YKLA the value was at most 0.2.
Turning to LCCM, the “one-hybrid fitness for binding parS DNA” value was at most 0.2.
For RTIH the value was at most 0.2; for TWHS, at most 0.2.
For LPRI the value was at most 0.2; for RYTR, at most 0.2.
For EHSR the value was at most 0.2; for HGQG, at most 0.2; for VNMC, at most 0.2.
For the variant HRRF, the “one-hybrid fitness for binding parS DNA” value was at most 0.2.
For KMPV the value was at most 0.2.
The result for PTWR reads at most 0.2; that for AMVR, at most 0.2; that for LSVM, at most 0.2.
For HGRC the value was at most 0.2; for KRRF, at most 0.2; for WCSR, at most 0.2.
For the variant AYGD, the “one-hybrid fitness for binding parS DNA” value was at most 0.2.
For TESN the value was at most 0.2.
For VAEV the value was at most 0.2.
Consider DECT, for which the “one-hybrid fitness for binding parS DNA” value was at most 0.2.
For RAEF the value was at most 0.2.
For LKLW the value was at most 0.2; for SAHF, at most 0.2; for PMTP, at most 0.2.
For VVMG the value was at most 0.2.
For the variant TRNC, the “one-hybrid fitness for binding parS DNA” value is at most 0.2.
For DGRA the value was at most 0.2; for MMFL, at most 0.2; for THAF, at most 0.2.
The result for RAIG reads 0.871; that for CPPE, at most 0.2; that for WLLT, at most 0.2.
For CKTY the value was at most 0.2; for WRWR, at most 0.2.
On to IHDT, for which the “one-hybrid fitness for binding parS DNA” value was at most 0.2.
For PFTE the value was at most 0.2; for RGVA, at most 0.2.
Consider PCYW, for which the “one-hybrid fitness for binding parS DNA” value is at most 0.2.
The result for STLL reads at most 0.2.
The result for LIRK reads at most 0.2; that for MGKF, at most 0.2.
For the variant SWRH, the “one-hybrid fitness for binding parS DNA” value is at most 0.2.
The result for PFQV reads at most 0.2; that for PLDV, at most 0.2.
For PPAV the value was at most 0.2; for GAFR, at most 0.2.
For RMQF the value was at most 0.2; for SDER, at most 0.2; for ILSM, at most 0.2.
As for LAKM, the “one-hybrid fitness for binding parS DNA” value was at most 0.2.
For TPKS the value was at most 0.2; for PCRK, at most 0.2.
The result for LEVD reads at most 0.2; that for DYTY, at most 0.2.
For QACE the value was at most 0.2.
Consider LVMT, for which the “one-hybrid fitness for binding parS DNA” value was at most 0.2.
For TACD the value was at most 0.2; for HWNF, at most 0.2.
For SCFG the value was at most 0.2; for FSKV, at most 0.2.
For FGQG the value was at most 0.2; for NTPT, at most 0.2; for TTVE, at most 0.2.
Turning to WTSW, the “one-hybrid fitness for binding parS DNA” value is at most 0.2.
On to SHSP, for which the “one-hybrid fitness for binding parS DNA” value was at most 0.2.
The result for ICLG reads at most 0.2.
The result for ESNC reads at most 0.2.
The result for AQWG reads at most 0.2.
For the variant SYEE, the “one-hybrid fitness for binding parS DNA” value was at most 0.2.
For DCVR the value was at most 0.2; for AKEL, at most 0.2.
Take TAIS: the “one-hybrid fitness for binding parS DNA” value is at most 0.2.
For YKNC the value was at most 0.2; for NSAD, at most 0.2; for VEMS, at most 0.2.
